Source: PubChem BioAssay AID686979 (National Center for Advancing Translational Sciences (NCATS), 2013)
About 50,000 (12%) of roughly 420,000 compounds were called active. The shares of active, inactive and inconclusive entries below differ from those in the screen. The call rests on the fitted dose curve; in most records, active means well fitted inhibition curve with a large enough effect; inconclusive means small, poorly fitted or top-dose-only effect; inactive means flat fitted curve, though single readings scatter. No potency is given beside an inconclusive call; the fits are too rough.

assay: qHTS for Inhibitors of human tyrosyl-DNA phosphodiesterase 1 (TDP1): qHTS in cells in presence of CPT; settings: chicken DT40 Tdp1-/-;hTDP1 cells + 20 nM CPT, ATP luminescence, 48 h; activity change, negative = growth inhibition: at 46.2 µM (top of the series) unless noted; further: nearly all actives have a fitted effect of over 55% in size
Method in brief: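 Cell growth measured by CellTiter-Glo luminescence after a minimum 48 h, 37 C compound exposure with 20 nM CPT in Tdp1-knockout DT40 cells stably expressing hTDP1, seeded 400/well; qHTS titration format.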
On the % scale 0 is the no-effect control and ±100 the full control effect; potency means the concentration at half of the fitted maximal effect; tags describe the fitted curve by direction and shape.

Row | Compound | Potency | activity change, negative = growth inhibition
1 | COc1ccc(Nc2c3c(nc4c(-c5ccccc5)c(C)nn24)CCC3)cc1 | inactive | 
2 | COc1ccc2sc(-c3ccc(S(C)(=O)=O)cc3)c(C#Cc3cncn3C)c2c1 | inconclusive [inhibitor, full curve, poor fit] | 
3 | OCCCCNCc1ccc(OCc2ccccc2)cc1 | inconclusive [inhibitor, single point] | 
4 | CCOC(=O)c1c(NC(=O)CN2CCCCC2)sc2c1CCCC2O (stereo not drawn) | inconclusive [inhibitor, partial curve, poor fit] | 
5 | CN1OC[C@@H]2CN(S(=O)(=O)c3cccc4ccccc34)[C@H](c3ccc(N4CCCCC4)cc3)C[C@@H]21 | inconclusive [inhibitor, single point] | 
6 | COc1ccc(CN2CCC(C)(Oc3ccc(C(C)=O)cc3)C2)c2ccccc12 (stereo not drawn) | inconclusive [inhibitor, single point] | 
7 | Cc1cc(C(=O)NCCc2ccc(Cl)cc2)n(-c2ccccc2)n1 | active: 20.6 µM | 
8 | COc1cc(CN(CCc2c(C)[nH]c3ccc(C)cc23)C(=S)NC(C)(C)C)cc(OC)c1OC | active: 20.6 µM | 
9 | Cc1ccc(-n2[nH]c(C)c(C=Nc3ccc(Br)cn3)c2=O)cc1 | inconclusive [inhibitor, single point] | 
10 | Cc1ccc2nc(-c3ccccc3)cc(C(=O)NNC(=O)c3csc(N4CCOCC4)n3)c2c1 | inconclusive [inhibitor, single point] | 
11 | Cc1cc(S(=O)(=O)NC2CCCCC2)ccc1OCC(=O)N1CCOCC1 | inactive | 
12 | COc1ccc(/C=C2/SC(=S)N(NS(=O)(=O)c3ccccc3)C2=O)cc1 | inactive | 
13 | CCOC(=O)c1c(-c2cccc(C)c2)csc1NC(=O)c1c(-c2ccccc2)noc1C | inconclusive [inhibitor, single point] | 
14 | COc1ccc(C)cc1NC(=O)Cn1nc(N2CCN(c3ccccc3OC)CC2)ccc1=O | inconclusive [inhibitor, single point] | 
15 | O=C(Nc1ccc(S(=O)(=O)N2CCOCC2)cc1)c1ccc([N+](=O)[O-])cc1Cl | inconclusive [inhibitor, single point] | 
16 | CCOc1ccc(OCC)c(NC(=O)C2CCCN(S(=O)(=O)c3cccs3)C2)c1 (stereo not drawn) | inconclusive [inhibitor, single point] | 
17 | O=[N+]([O-])c1cc(-c2csc(NC(CO)c3nc4ccccc4n3CCOCCO)n2)ccc1Cl (stereo not drawn) | inconclusive [inhibitor, single point] | 
18 | CCOC(=O)c1ccc(S(=O)(=O)NNC(=O)c2cccc(N(C)C)c2)cc1 | inactive | 
19 | CSCC(=O)N1CCc2ccc(NC(=O)c3ccccc3Cl)cc2C1 | inconclusive [inhibitor, single point] | 
20 | COc1ccc(CNC(=O)c2cc3cccc(OC)c3oc2=N)cc1 | inactive | 
21 | CN1CCN(c2ccc(NC(=S)NC(=O)c3cccc4c(Br)cccc34)cc2)CC1 | active: 20.6 µM | 
22 | C[C@H](CO)N1C[C@H](C)[C@@H](CN(C)C(=O)Nc2ccc(C(F)(F)F)cc2)Oc2c(NC(=O)c3ccncc3)cccc2C1=O | inactive | 
23 | CCOC(=O)Cc1csc(NC(=S)NC(=O)c2cccc([N+](=O)[O-])c2)n1 | inactive | 

Row | Compound | Potency | activity change, negative = growth inhibition
24 | Cc1cc(N=Nc2ccc(Cl)cc2)cc(CN2CCCC2)c1O | inconclusive [inhibitor, single point] | 
25 | COc1ccc(CC(=O)OCC(=O)NC2CCCC(C)C2C)cc1OC (stereo not drawn) | inactive | 
26 | CC(=O)Nc1nc2ccccc2n1Cc1ccccc1 | inconclusive [inhibitor, single point] | 
27 | COc1ccc(C2CC(=O)CCN2S(=O)(=O)c2ccc(C)cc2)cc1 (stereo not drawn) | inconclusive [inhibitor, single point] | 
28 | O=C(CN1CCN(c2ccccn2)CC1)Nc1ccc(Cl)c(C(F)(F)F)c1 | active: 18.4 µM | 
29 | O=C(NCC1CCCO1)c1ccc2c(c1)N(Cc1ccccc1)CCS2 (stereo not drawn) | inconclusive [inhibitor, single point] | 
30 | COc1ccccc1CNC(=O)C(=O)NCC(c1cccnc1)N1CCN(c2ccccc2)CC1 (stereo not drawn) | inconclusive [inhibitor, single point] | 
31 | Cc1ccc2c(c1)N(CC(=O)NC(C)CCc1ccccc1)C(=O)c1cccnc1O2 (stereo not drawn) | inactive | 
32 | COc1ccc(Cc2c(C3CCCCC3)nc3c4ccccc4ccn23)c(C)c1 | inconclusive [inhibitor, single point] | 
33 | CCCCCCCn1ccc(=N)cc1 | active: 0.517 µM | 
34 | CC(C)(C)Cc1nc2ccccc2n1CCc1ccccc1 | inconclusive [inhibitor, single point] | 
35 | O=C(Cc1cccs1)N[C@@H]1c2ccccc2CC[C@H]1OCc1ccccc1 | inconclusive [inhibitor, single point] | 
36 | Fc1ccccc1COc1ccc(Br)cc1CNCc1ccncc1 | inconclusive [inhibitor, single point] | 
37 | COc1ccc(-c2nc(SCC(=O)NC3CCCC3)c(-c3ccc(F)cc3)[nH]2)cc1OC | inconclusive [inhibitor, single point] | 
38 | CN(C)S(=O)(=O)c1cccc(C(=O)N2CCc3ccccc32)c1 | inconclusive [inhibitor, single point] | 
39 | Cc1cc2c(c(C)c1CCO[C@@H]1O[C@H](CO)[C@@H](O)[C@H](O)[C@H]1O)C(=O)[C@@H](C)[C@@H]2O | active: 2.91 µM | 
40 | COc1ccc(CN2CCN(C(=O)c3ccccc3C(=O)c3ccccc3)CC2)cc1F | inconclusive [inhibitor, partial curve] | 
41 | Cc1cc(/C=C(\C#N)C(=O)NCCc2c[nH]c3ccccc23)c(C)n1C | inconclusive [inhibitor, single point] | 
42 | O=C(COCc1cc(-c2ccco2)on1)Nc1cc(Cl)ccc1O | inconclusive [inhibitor, partial curve] | 
43 | O=C(CCN1N=C(c2ccccc2)CCC1=O)NCC1COc2ccccc2O1 (stereo not drawn) | inactive | 
44 | O=C(N/N=C/c1ccco1)C1CC(=O)N(c2ccccc2)C1 (stereo not drawn) | inactive | 
45 | COC(=O)[C@@]12C[C@@H](CC(=O)N3CCN(C(=O)C4CC4)CC3)C(=O)N(Cc3cccc4ccccc34)C1=CCC(C)(C)C2 | inconclusive [inhibitor, single point] | 
46 | CN(C)C1=C(Cl)C(=O)N(c2ccc(Cl)c(Cl)c2)C1=O | inconclusive [inhibitor, single point] | 

Row | Compound | Potency | activity change, negative = growth inhibition
47 | CC(=NNC(=O)c1cc(C)oc1C)c1ccc(Br)s1 | inconclusive [inhibitor, single point] | 
48 | CC(=O)c1ccc(N2Cc3ccccc3/C2=N\C(=O)Nc2ccc(Cl)cc2)cc1 |  | inconclusive: -30.7% [inhibitor]
49 | Cc1cccc(CNc2ncnc3ccc(-c4ccccc4C#N)cc23)c1 | inactive | 
50 | COc1cc(-c2ccc(C(F)(F)F)cn2)cc2c1OCCN(S(=O)(=O)C[C@]13CC[C@H](CC1=O)C3(C)C)C2 |  | inactive: -7.82% [at 9.04 µM]
51 | O=C(Nc1ccc2c(c1)OCCO2)C1CC(c2ccccc2Cl)=NO1 (stereo not drawn) | inconclusive [inhibitor, single point] | 
52 | CCC(C(=O)N1CCOCC1)n1nc(C)n2c(cc3cc(C)ccc32)c1=O (stereo not drawn) | inactive | 
53 | O=C(Nc1ccc2oc(-c3cccnc3)nc2c1)c1ccccc1F | inactive | 
54 | CCCCCCCNC(=O)C1(CC2CC(c3cccc(Br)c3)=NO2)CCN(C(=O)c2cc(OCC)c(OCC)c(OCC)c2)CC1 (stereo not drawn) | active: 23.1 µM | 
55 | CCN(CC(=O)NCc1ccc(Cl)cc1)C(=O)CSc1cc(C)ccc1C | inconclusive [inhibitor, single point] | 
56 | CC(=O)Nc1coc2ccc(Br)cc12 | inconclusive [inhibitor, single point] | 
57 | Cc1cscn1 | inactive | 
58 | Cc1cccc(NC(=O)CCS(=O)(=O)c2cc3c(cc2Cl)NC(=O)CO3)c1 | active: 18.4 µM | 
59 | COCCn1c(SCC(=O)Nc2ccccc2OC)nc2c(oc3ccccc32)c1=O | inconclusive [inhibitor, partial curve, poor fit] | 
60 | CCCC(C)NC(=O)Cc1ccc(S(=O)(=O)N2CCOCC2)s1 (stereo not drawn) | inactive | 
61 | COc1cccc(Cn2c(=O)c(C)nc3cnc(N4CCOCC4)nc32)c1 | inactive | 
62 | COc1ccc(CC(=O)N2CCc3c([nH]c4ccccc34)C2c2ccc(SC)cc2)cc1 (stereo not drawn) | inconclusive [inhibitor, partial curve] | 
63 | CC(=O)N1CCCc2cc(S(=O)(=O)Nc3ccc(Cl)cc3F)ccc21 | inconclusive [inhibitor, single point] | 
64 | CN(C)c1ccc(/C=C(\Cl)c2nc3ccccc3s2)cc1 | active: 16.4 µM | 
65 | Cc1ccc2c(c1)[C@H]1[C@H](CO2)[C@H](c2ccccc2)[C@]2(C)C(=O)Nc3cc(F)ccc3C(=O)N12 | inconclusive [inhibitor, single point] | 
66 | CN(C)c1cccc(C(=O)OCc2cc(=O)oc3cc(O)ccc23)c1 | inconclusive [inhibitor, single point] | 
67 | COc1ccccc1NC(=O)CSc1nnc(Cn2nnc(-c3ccccc3)n2)n1-c1ccccc1 | active: 18.4 µM | 
68 | O=C(NCc1ccc2c(c1)OCO2)C12CN(Cc3ccccc3)CC1C(c1cccc([N+](=O)[O-])c1)=NO2 (stereo not drawn) | inconclusive [inhibitor, single point] | 
